# Experimental data as given in PubChem BioAssay AID1240 (Sanford-Burnham Center for Chemical Genomics, 2008).
# The whole screen tested about 50,000 compounds, of which about 800 (1.6%) showed an effect of 50% or more. The list shows a part of the results.
# Molecular target: Bcl-2-like protein 10 (Homo sapiens) (UniProt Q9HD36)
# Test: TR3 peptide-Bcl-B binding displacers, biochemical primary FP assay, phenotype converters (AID 1240);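 further: 0% = Bcl-B with tracer peptide and DMSO and 100% = tracer peptide lacking Bcl-B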
# Conditions: GST-Bcl-B / FITC-TR3 peptide fluorescence polarization; stronger effect = higher value; compound at 3.75 mg/L
# UniProt Q9HD36, sequence (Q9HD36 whole entry, looked up): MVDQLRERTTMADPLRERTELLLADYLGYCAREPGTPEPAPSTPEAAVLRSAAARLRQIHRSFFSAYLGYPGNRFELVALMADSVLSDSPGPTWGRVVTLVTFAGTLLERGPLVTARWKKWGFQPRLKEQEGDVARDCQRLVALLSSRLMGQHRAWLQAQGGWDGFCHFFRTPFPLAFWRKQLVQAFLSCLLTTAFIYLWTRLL
row,SMILES,displacement [%]
1,COc1ccc(NC(=O)NC(C)c2cccc3ccccc23)cc1OC (stereo unspecified),-13
2,Cc1ccc(NC(=O)C2CC(=O)N=C(N)S2)cc1Cl (stereo unspecified),10.4
3,Cc1ccc2nsnc2c1NC(=O)/C=C/c1ccccc1,1.4
4,COc1cc(/C=C2\SC(=O)N(c3c(C)n(C)n(-c4ccccc4)c3=O)C2=O)ccc1O,-9
5,C=CCNC(=O)C(=O)Nc1cc(OC)ccc1OC,5.4
6,Cc1ccccc1OCCNC(=O)Cc1cccc2ccccc12,11.2
7,O=c1c(-c2nc3ccccc3s2)c(C(F)(F)F)oc2cc(O)ccc12,-12.7
8,COc1ccc(-c2nc(SC(C)C(=O)Nc3c(C)cc(C)cc3C)n[nH]2)cc1 (stereo unspecified),-20.1
9,Cc1cc([N+](=O)[O-])ccc1NC1CCC(c2ccccc2)CC1 (stereo unspecified),-4.7
10,CSc1nn(CN2CCCCC2)c(=S)s1,-20.2
11,C(=N\Nc1nnnn1-c1ccccc1)/c1ccc2c(c1)OCO2,-20.2
12,O=C(/C=C/c1ccc2c(c1)OCO2)c1ccc(F)cc1,-2.5
13,Cc1ccc2c(Cl)c(-c3nnc(-c4ccc(Cl)cc4)o3)sc2c1,-13.2
14,CCCC(=O)Nc1nc(-c2ccc(C)c3ccccc23)cs1,5.7
15,O=C(COc1ccccc1[N+](=O)[O-])Nc1ccc2c(c1)Cc1ccccc1-2,-10.8
16,COc1cccc(C2/C(=C(\O)c3ccccc3)C(=O)C(=O)N2CCN(C)C)c1 (stereo unspecified),1.1

row,SMILES,displacement [%]
1,Cc1cc(OCC(=O)NC(C)c2ccccc2)cc(C)c1Cl (stereo unspecified),1.4
2,Cc1ccccc1CNC(=O)c1ccccc1,6.8
3,N#Cc1c2n(c3c(=O)n(CC(=O)c4ccc(Br)cc4)cnc13)CCCC2,-11.7
4,COc1ccc(N(CC(=O)NC2CCCCC2)S(=O)(=O)c2ccc(C)cc2)cc1OC,4.4
5,Cn1c2ccccc2c2nnc(SCc3ccccc3Cl)nc21,10.6
6,CCOC(=O)c1sc2ncc([N+](=O)[O-])c(NC)c2c1N,-10.1
7,CCOc1cccc(/C=C2\C(=O)NN(c3ccccc3)C2=O)c1O,13.1
8,O=C(NCCOc1ccccc1F)c1cc(F)c(F)cc1Cl,12.2
9,COc1ccc(CC(=O)O/N=C(\N)Cc2ccc([N+](=O)[O-])cc2)cc1OC,14.2
10,CCOc1ccc2nc(SC3CC(=O)N(c4ccccc4I)C3=O)sc2c1 (stereo unspecified),-29.6
11,CC(=O)CC(=O)Nc1ccc(Br)cc1,13
12,Clc1ccc(CSc2nnnn2-c2ccccc2)cc1,4.7
13,COc1cc([N+](=O)[O-])ccc1NC(=S)NC(=O)c1ccco1,-0.2
14,COc1cc(NC(=O)[C@@H]2C3C=CC(C3)[C@@H]2C(=O)O)c(OC)cc1Cl (stereo partly specified),11.8
15,O=C(Nc1ccc(S(=O)(=O)N2CCCCC2)cc1)c1cccc([N+](=O)[O-])c1,6.8
